Results reported in PMC8096781.
Results are given in words; binding and its absence hold for the method and conditions named. In cells and extracts the contact can be indirect. Some results given as binding are weak or reduced against the parent protein; the word gives no strength. For some assays here: Where a sequence is shown, tags or fusion partners need not be part of it.

The chains behind the UniProt entries cited, without tags or fusion partners. Residues count along the entry.
UniProt Q04206: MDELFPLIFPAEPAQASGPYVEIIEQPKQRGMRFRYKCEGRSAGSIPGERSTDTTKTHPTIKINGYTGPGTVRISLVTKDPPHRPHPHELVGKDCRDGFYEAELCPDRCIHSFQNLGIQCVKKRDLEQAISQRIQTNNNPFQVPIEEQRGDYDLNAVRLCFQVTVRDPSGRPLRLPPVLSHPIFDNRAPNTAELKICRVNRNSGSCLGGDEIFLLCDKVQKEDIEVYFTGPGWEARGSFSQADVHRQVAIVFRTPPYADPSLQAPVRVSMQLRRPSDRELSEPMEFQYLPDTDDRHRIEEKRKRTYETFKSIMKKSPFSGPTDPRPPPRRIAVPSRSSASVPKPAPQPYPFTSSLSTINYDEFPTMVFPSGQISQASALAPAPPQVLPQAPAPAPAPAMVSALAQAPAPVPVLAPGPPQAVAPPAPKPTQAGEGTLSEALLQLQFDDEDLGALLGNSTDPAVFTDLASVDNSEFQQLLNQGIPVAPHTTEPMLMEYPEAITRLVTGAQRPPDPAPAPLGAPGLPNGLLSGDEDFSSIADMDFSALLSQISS
UniProt P19838, residues 1-433: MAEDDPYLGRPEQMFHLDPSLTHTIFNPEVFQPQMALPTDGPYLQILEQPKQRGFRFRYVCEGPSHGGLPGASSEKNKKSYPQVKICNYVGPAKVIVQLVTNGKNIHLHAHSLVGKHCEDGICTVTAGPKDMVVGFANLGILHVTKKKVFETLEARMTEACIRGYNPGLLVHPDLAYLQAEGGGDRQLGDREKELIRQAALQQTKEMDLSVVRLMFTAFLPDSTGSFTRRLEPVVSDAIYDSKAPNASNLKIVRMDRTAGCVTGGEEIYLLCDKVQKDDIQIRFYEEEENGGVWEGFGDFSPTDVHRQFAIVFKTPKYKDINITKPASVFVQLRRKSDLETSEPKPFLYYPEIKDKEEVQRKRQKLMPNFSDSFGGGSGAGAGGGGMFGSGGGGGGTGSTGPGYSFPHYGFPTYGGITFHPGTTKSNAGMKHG
UniProt P14618: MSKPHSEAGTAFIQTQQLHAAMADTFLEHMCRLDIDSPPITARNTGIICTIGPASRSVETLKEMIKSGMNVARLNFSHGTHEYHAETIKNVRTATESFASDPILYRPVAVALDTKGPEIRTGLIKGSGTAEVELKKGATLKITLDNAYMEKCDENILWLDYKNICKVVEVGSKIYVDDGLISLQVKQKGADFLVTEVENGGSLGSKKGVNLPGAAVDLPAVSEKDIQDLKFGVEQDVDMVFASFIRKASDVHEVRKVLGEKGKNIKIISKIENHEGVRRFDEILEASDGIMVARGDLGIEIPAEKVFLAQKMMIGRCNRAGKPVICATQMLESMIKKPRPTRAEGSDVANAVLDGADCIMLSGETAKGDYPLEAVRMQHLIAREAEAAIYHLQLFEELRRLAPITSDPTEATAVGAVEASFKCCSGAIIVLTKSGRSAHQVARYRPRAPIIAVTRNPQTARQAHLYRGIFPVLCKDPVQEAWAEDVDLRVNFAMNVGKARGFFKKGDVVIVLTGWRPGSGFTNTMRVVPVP

Assays:
GST-FOXM1D = biological target: T1, GST-FOXM1D (UniProt Q08050); test: pull-down; GST-FOXM1D or control GST bound to MagneGST glutathione particles, incubated with lysates of transfected HEK293T cells for 1 h at 4 °C; western blot with anti-HA and anti-PKM2; only the target purified
T1 sequence: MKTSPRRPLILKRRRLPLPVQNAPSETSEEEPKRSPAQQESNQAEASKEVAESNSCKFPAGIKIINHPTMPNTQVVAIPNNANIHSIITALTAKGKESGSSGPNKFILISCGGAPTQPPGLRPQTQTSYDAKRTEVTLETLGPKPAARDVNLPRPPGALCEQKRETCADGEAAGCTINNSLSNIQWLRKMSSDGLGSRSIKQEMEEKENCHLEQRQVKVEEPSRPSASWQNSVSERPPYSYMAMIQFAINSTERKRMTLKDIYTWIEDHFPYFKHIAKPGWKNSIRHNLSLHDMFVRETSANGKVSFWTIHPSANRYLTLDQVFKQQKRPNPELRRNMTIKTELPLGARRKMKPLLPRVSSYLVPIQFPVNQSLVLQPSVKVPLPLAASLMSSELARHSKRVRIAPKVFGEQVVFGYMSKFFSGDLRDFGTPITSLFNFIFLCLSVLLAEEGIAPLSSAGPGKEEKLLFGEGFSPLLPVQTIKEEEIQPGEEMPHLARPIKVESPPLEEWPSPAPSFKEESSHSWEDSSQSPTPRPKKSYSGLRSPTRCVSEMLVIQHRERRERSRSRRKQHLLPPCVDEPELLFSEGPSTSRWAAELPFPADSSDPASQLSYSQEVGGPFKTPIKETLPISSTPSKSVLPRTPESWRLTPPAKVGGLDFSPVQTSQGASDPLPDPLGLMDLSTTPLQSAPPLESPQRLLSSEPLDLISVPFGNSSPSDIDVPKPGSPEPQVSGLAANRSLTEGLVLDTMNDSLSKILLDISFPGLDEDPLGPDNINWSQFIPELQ

[1] = biological target: T2, Flag-FOXM1C (transfected 293T cells) (UniProt Q08050); test: co-IP; HEK293T cells cotransfected with HA-PKM2 (or its truncated mutants) and Flag-FOXM1 isoforms (or FOXM1D truncated mutants); lysed two days after transfection; anti-Flag or anti-HA; washed four times with lysis buffer; western blot
T2 sequence: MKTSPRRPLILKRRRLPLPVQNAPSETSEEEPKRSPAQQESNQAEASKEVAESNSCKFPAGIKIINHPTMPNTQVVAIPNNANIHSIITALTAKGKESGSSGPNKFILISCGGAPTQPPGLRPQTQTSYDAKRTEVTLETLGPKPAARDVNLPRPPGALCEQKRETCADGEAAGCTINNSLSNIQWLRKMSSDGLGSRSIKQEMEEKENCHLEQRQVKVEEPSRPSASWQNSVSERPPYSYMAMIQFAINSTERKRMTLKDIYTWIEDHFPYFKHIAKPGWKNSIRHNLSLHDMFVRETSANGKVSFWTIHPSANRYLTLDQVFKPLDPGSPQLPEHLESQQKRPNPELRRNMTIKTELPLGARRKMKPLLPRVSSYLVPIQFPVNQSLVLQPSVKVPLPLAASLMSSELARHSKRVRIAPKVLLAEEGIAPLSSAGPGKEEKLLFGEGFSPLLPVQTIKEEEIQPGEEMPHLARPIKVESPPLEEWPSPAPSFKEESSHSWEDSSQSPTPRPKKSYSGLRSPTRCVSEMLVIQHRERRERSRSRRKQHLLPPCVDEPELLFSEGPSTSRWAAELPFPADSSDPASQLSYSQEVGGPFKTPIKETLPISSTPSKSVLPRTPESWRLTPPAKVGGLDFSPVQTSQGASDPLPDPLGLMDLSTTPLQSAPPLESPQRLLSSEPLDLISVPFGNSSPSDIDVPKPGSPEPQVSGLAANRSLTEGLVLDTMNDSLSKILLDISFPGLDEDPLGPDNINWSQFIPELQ

[2] = biological target: T3, Flag-FOXM1D (transfected 293T cells) (UniProt Q08050); test: as above
T3 sequence: T1 sequence

[3] = biological target: T4, Flag-FOXM1B (transfected 293T cells) (UniProt Q08050); test: as above
T4 sequence: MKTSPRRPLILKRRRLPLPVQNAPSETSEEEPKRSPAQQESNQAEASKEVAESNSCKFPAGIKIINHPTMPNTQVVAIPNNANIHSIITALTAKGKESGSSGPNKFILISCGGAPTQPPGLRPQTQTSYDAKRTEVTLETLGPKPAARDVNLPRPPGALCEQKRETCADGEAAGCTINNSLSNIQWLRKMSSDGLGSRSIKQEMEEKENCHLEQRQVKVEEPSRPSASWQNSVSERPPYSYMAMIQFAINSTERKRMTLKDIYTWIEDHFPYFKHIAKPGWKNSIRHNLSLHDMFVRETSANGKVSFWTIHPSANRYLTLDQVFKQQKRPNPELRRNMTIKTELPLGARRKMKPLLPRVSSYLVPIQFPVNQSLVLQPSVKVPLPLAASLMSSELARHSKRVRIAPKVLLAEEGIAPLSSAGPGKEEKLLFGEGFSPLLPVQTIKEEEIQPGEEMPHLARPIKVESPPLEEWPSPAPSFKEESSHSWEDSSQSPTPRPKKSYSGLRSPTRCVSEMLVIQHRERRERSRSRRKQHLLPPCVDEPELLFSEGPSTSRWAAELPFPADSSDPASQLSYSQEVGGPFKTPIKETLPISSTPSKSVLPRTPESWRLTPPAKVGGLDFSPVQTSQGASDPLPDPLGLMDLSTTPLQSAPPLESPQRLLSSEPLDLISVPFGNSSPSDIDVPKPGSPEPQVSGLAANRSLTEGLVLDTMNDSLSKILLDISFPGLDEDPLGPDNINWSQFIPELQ

[4] = biological target: T5, Flag-FOXM1A (overexpressed in HeLa cells) (UniProt Q08050); test: co-IP; vector control and Flag-FOXM1A/B/C/D-overexpressing HeLa cells further transfected with HA-p65 or HA-p50 plasmid; anti-Flag or anti-HA antibody; western blot
T5 sequence: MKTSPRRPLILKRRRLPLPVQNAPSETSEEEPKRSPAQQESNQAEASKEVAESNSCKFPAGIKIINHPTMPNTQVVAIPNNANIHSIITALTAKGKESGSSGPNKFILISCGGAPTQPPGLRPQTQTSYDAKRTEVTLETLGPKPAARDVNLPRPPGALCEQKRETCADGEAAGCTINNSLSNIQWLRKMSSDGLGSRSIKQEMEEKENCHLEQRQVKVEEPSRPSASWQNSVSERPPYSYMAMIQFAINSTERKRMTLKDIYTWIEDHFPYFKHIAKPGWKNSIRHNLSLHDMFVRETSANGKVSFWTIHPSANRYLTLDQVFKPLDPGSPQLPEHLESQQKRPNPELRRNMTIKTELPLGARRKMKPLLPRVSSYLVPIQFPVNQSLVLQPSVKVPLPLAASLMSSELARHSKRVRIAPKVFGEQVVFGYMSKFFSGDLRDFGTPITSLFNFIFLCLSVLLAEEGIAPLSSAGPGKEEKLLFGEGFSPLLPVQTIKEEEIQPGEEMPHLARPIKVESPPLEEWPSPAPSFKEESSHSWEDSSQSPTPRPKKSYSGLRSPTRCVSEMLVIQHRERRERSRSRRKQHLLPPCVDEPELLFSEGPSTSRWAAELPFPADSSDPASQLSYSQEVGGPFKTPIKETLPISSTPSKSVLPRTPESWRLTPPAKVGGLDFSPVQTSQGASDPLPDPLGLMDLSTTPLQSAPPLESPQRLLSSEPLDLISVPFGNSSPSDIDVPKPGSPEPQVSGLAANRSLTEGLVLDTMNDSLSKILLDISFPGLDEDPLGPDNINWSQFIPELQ

[5] = biological target: T6, Flag-FOXM1B (overexpressed in HeLa cells) (UniProt Q08050); test: as above
T6 sequence: T4 sequence

[6] = biological target: T7, Flag-FOXM1D (overexpressed in HeLa cells) (UniProt Q08050); test: as above
T7 sequence: T1 sequence

[7] = biological target: T8, Flag-FOXM1C (overexpressed in HeLa cells) (UniProt Q08050); test: as above
T8 sequence: T2 sequence

HA-p65 = HA-p65 (UniProt Q04206); test: as above
HA-p50 = HA-p50 (UniProt P19838); test: as above

binding (GST-FOXM1D)	binding [1]	binding [2]	binding [3]	binding [4]	binding [5]	binding [6]	binding [7]	binding (HA-p65)	binding (HA-p50)	Substance
binds	binds	binds	binds							HA-PKM2 (from UniProt P14618 1-531) (enzyme)
				binds weakly	no binding	binds				HA-p50 (from UniProt P19838 1-433)
				binds	binds					HA-p65 (from UniProt Q04206 1-551)
					binds	binds	binds	binds	binds	endogenous PKM2 (HeLa cells) (from UniProt P14618 1-531) (enzyme)
